The values below come from paper PMC4336329 (PLoS ONE, 2015).

SMILES strings stand for the structures. Out of some 310,000 compounds screened, about 2,200 (0.71%) showed an effect of 50% or more. Effects have a minus sign here. The list shows a part of the results.

Sequence of human ether-à-go-go-related gene (hERG) potassium channel (Q12809 whole entry, looked up): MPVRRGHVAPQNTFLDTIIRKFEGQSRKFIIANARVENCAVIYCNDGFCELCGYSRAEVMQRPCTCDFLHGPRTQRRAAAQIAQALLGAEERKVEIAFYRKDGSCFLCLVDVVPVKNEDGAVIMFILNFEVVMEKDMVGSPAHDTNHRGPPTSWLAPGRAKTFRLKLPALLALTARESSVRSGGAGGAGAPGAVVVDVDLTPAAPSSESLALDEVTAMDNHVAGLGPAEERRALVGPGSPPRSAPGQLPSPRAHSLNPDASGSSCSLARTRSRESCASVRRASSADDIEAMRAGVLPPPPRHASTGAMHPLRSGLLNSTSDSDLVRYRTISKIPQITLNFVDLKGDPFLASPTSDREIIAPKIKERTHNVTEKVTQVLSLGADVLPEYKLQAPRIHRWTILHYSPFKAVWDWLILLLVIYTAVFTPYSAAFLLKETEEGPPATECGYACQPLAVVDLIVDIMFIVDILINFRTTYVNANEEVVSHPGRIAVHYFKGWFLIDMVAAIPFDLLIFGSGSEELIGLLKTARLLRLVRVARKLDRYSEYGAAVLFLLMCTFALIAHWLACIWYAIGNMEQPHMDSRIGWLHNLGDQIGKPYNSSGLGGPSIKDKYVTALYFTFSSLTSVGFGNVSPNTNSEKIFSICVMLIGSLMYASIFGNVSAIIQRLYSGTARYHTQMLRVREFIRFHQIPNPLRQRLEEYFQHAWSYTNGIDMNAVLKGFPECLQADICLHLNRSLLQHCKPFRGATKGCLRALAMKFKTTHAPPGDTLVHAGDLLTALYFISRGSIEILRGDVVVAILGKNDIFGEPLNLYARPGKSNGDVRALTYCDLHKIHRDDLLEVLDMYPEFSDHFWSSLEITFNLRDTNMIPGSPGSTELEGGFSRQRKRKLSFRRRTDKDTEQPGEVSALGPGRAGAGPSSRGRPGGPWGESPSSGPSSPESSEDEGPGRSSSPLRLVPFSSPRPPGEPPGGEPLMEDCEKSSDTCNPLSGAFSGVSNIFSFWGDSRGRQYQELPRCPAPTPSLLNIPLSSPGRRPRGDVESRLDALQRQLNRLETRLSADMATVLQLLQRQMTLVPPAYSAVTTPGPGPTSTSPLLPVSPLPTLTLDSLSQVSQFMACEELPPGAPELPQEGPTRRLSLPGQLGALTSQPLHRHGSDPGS

The test addresses human ether-à-go-go-related gene (hERG) potassium channel (human, UniProt Q12809). The test can be described thus: primary screen, population patch clamp on CHO cells stably expressing hERG.
As to `CCOC(=O)CSc1nc(-c2ccccc2)ns1`, the “hERG current change (%, negative = inhibition) at 1uM” value worked out at 8.79%.
Under `CCOC(=O)CSc1nnc(-c2ccoc2C)n1-c1ccc(OCC)cc1` stands -22.9%; under `CC(Oc1cccc(Cl)c1)C(=O)Nc1cc(S(=O)(=O)N2CCOCC2)ccc1N1CCCC1` (stereo not drawn), -1.02%; under `Cc1cc(NC(=O)C(C)SCC(=O)Nc2ccccc2N2CCCCC2)no1` (stereo not drawn), 20%.
As for `COC(=O)c1ccc(CSc2ncnc3ccccc23)o1`, the figure is 11.9%; as for `CC(C)C(c1nnnn1Cc1ccc(F)cc1)N1CCN(Cc2ccc3c(c2)OCO3)CC1` (stereo not drawn), -2.47%; as for `CCN(c1cccc(C)c1)S(=O)(=O)c1c(C)[nH]c(C)c1C(=O)N1CCCCC1`, 11.1%.
`C/C(=N\NC(=O)C(c1ccncc1)N1CCOCC1)c1ccc(Br)cc1` (stereo not drawn): the “hERG current change (%, negative = inhibition) at 1uM” value was found to be 5.99%.
As for `CCOC(=O)c1c(/N=C/c2cc([N+](=O)[O-])ccc2O)sc(C)c1C`, the figure is 11.4%.
On to `COc1ccc(Nc2nc(N)nc(CSC(=S)N3CCCCC3)n2)cc1`, for which the “hERG current change (%, negative = inhibition) at 1uM” value is listed as 13.7%.
Under `COC(=O)c1cc(OC)c(OC)cc1NC(=O)c1csc(C)c1` stands -0.691%.
For the compound `CC(=O)CCc1oc2ccc(C)cc2c1-c1ccccc1`, the “hERG current change (%, negative = inhibition) at 1uM” value is 4.78%.
Consider `Cc1nn(Cc2ccccc2)c(C)c1NC(=O)c1cccs1`, for which the “hERG current change (%, negative = inhibition) at 1uM” value was 14%.
As for `Cc1cccc(C)c1N(CC(=O)NC1CCCCC1)C(=O)c1csnn1`, the figure is 14.8%.
As for `O=C(CCNC(=O)c1ccc(Br)cc1)Nc1ccccc1N1CCCC1`, the figure is 12.5%; as for `O=C(CSc1nnc(SCc2cccc3ccccc23)s1)N/N=C/C=C/c1ccccc1[N+](=O)[O-]`, -9.84%; as for `COc1ccccc1/C=c1\sc2nc(-c3ccco3)nn2c1=O`, 17.5%.
As for `COc1ccc(/C=N/NC(=O)c2ccc3c(c2)NC(=O)C(C)(C)O3)cc1OC`, the figure is 9.42%.
For `O=C(Nc1ccncc1)c1c(Cl)cccc1Cl`, the “hERG current change (%, negative = inhibition) at 1uM” value is 15.6%.
As for `Cc1ccc(S(=O)(=O)NCc2nc3ccccc3c(=O)n2N)cc1`, the figure is 2.51%.
As for `Cc1csc(NC(=O)C(NC(=O)c2ccccc2F)C(C)C)n1` (stereo not drawn), the “hERG current change (%, negative = inhibition) at 1uM” value was 0.516%.
As to `Cc1ccc(-n2c(Cn3nc(C(F)(F)F)cc3C)n[nH]c2=S)cc1`, the “hERG current change (%, negative = inhibition) at 1uM” value was determined as 17.3%.
As for `COC(=O)Cc1ccc(N(Cc2ccccc2F)S(=O)(=O)c2ccc(Br)cc2)cc1`, the figure is 11.2%; as for `COC(=O)C(C(=O)Nc1ncccn1)C1CCCCCC1` (stereo not drawn), -4.9%.
Regarding `COc1ccc2nc(N3C(=O)CC(C(C)c4ccccc4)C3=O)sc2c1` (stereo not drawn), the “hERG current change (%, negative = inhibition) at 1uM” value is listed as -4.65%.
As for `CC(=O)c1ccc(NC(=S)NC(=O)c2c(Cl)c(C)nn2C)cc1`, the “hERG current change (%, negative = inhibition) at 1uM” value was -0.492%.
`O=C(O)CC(c1ccc(Br)cc1)N1Cc2ccccc2C1=O` (stereo not drawn): the “hERG current change (%, negative = inhibition) at 1uM” value is reported as 11.1%.
As for `CCc1cc2c(=O)nc3n(c2s1)Cc1ccccc1/C3=C(/O)c1ccccc1Cl`, the figure is 13.4%; as for `c1ccc(-n2cnc3cc(NCc4cccs4)ccc32)cc1`, 2.7%; as for `Cn1c(CO)cnc1-c1ccccc1`, 17.2%.
As for `COc1ccc(C(=O)Nc2cc([N+](=O)[O-])ccc2N2CCCC2)cc1`, the figure is 6.41%.
As for `Cc1ccccc1-n1c(=O)cc(N2CCN(C(=O)c3ccco3)CC2)[nH]c1=O`, the figure is 7.19%; as for `COc1ccc(NS(=O)(=O)c2cccc(C(=O)NCC(c3ccc(F)cc3)N3CCOCC3)c2)cc1` (stereo not drawn), -5.28%.
For `Cc1ccc(NC(=O)CCC(=O)OC(C(=O)c2ccc(C)c(C)c2)c2ccccc2)c(C)c1` (stereo not drawn), the “hERG current change (%, negative = inhibition) at 1uM” value stood at 0.712%.
Turning to `O=C(COc1coc(CN2CCc3ccccc3C2)cc1=O)Nc1ccc(Cl)cc1`, the “hERG current change (%, negative = inhibition) at 1uM” value is -0.649%.
In the case of `CSc1nnc2c(n1)OC(c1cccn1C)N(C(C)=O)c1ccccc1-2` (stereo not drawn), the “hERG current change (%, negative = inhibition) at 1uM” value is listed as 6.15%.
For `Cc1oc(-c2cc(F)ccc2F)nc1CN1CCCN(C(=O)c2ccco2)CC1`, the “hERG current change (%, negative = inhibition) at 1uM” value was -20.9%.
`CCCCCc1ccc(CC(=O)N2CCOCC2)cc1`: the “hERG current change (%, negative = inhibition) at 1uM” value turned out to be 19.7%.
Turning to `CCN(CCNC(=O)C1=C(C)C(=O)OC12CCC(C)CC2)c1ccccc1` (stereo not drawn), the “hERG current change (%, negative = inhibition) at 1uM” value is 4.44%.
Under `COc1ccc(S(=O)(=O)NC2CC2)cc1-n1cnnn1` stands 1.94%; under `CCC(C)c1ccc(NC(=S)NCc2ccccn2)cc1` (stereo not drawn), 3.74%; under `CC1=NNC(=O)C1Cc1ccc(F)cc1` (stereo not drawn), 8.57%.
As for `CCOC(=O)c1c(NC(=O)COC(=O)Cn2cnc3ccccc32)sc(C)c1C`, the figure is 8.73%.
Turning to `CCN(CC)CCN(Cc1cc2cc(C)ccc2[nH]c1=O)C(=O)Nc1ccccc1OC`, the “hERG current change (%, negative = inhibition) at 1uM” value is -22.2%.
Take `Cc1ccc(S(=O)(=O)N(C)C)cc1NC(=O)CN1C(=O)NC(Cc2c[nH]c3ccccc23)C1=O` (stereo not drawn): the “hERG current change (%, negative = inhibition) at 1uM” value is 10.9%.
